Reference: the supplement of paper PMC3334620
In all, about 33,000 sequences were measured (“E-score (-0.5 to 0.5)”: median about -0.012, highest 2% from about 0.27 on). The list shows a part of the results.

These sequences were tested against T1, Vhr1 (UniProt P40522) (assay: PBM E-score (8-mer binding enrichment) (E-score (-0.5 to 0.5)); higher = stronger / more preferred TF binding; most listed sequences are background and not binding sites). Settings: protein concentration: 200 nM; construct: GST-full length.
T1 sequence: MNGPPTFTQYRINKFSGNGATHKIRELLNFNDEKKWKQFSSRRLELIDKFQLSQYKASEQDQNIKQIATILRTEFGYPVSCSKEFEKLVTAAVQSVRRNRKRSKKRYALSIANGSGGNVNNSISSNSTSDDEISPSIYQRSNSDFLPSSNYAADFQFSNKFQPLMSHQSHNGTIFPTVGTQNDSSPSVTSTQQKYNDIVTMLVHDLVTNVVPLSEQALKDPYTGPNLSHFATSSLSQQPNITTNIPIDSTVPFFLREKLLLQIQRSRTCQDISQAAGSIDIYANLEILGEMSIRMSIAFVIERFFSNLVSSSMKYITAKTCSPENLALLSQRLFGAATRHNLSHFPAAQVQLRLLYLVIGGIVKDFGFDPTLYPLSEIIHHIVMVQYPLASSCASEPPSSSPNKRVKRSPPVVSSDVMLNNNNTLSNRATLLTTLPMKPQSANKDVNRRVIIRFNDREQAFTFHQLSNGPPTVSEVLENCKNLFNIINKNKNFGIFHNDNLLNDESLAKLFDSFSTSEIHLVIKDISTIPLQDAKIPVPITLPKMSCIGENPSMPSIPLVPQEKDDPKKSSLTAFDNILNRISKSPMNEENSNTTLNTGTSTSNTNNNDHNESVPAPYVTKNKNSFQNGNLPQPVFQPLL
How it was run: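 Using PURExpress in vitro transcription/translation, GST-tagged yeast transcription factors were made in full-length or DNA-binding-domain form. These were applied at about 100-200 nM to double-stranded universal all-10-mer Agilent arrays, and bound protein was detected with fluorescent anti-GST. Scans were normalised with masliner before the Universal PBM Analysis Suite assigned E-scores to ungapped eight-base words pooled with their reverse complements.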

Row | Sequence | PBM E-score
1 | AGCCTCAA | -0.244
2 | ACCTTATC | -0.0284
3 | AAGACGGT | -0.229
4 | CCGGTGGC | -0.0116
5 | TTAACTAA | 0.082
6 | AACCTGGG | -0.203
7 | GCAAAGTA | 0.0726
8 | TCCCCACA | -0.229
9 | AAGGTTGT | -0.0894
10 | CCCGCACA | 0.0842
11 | GCTTCCAA | -0.269
12 | ACGGATCA | 0.205
13 | CCGGTATA | 0.0882
14 | AAATTCTA | -0.276
15 | GCTTTGCC | -0.247
16 | AGCGGCGA | 0.0783
17 | AGTCAATA | 0.161
18 | CTTCTATA | -0.143
19 | CATACGAG | 0.112
20 | AATACCCT | -0.0923
21 | GCGCAGGA | 0.0795
22 | CCTTACCC | 0.0142
23 | AAAGCTTG | -0.161
24 | GGGTTCTA | -0.145
25 | AAAAGCCC | -0.186

Row | Sequence | PBM E-score
26 | AGTGAGGA | 0.114
27 | AAGGCAGG | -0.0817
28 | AACGTGAG | -0.11
29 | CAGCCAAC | -0.117
30 | CTATATAA | 0.0181
31 | CAGAACTG | 0.153
32 | AATATTCT | -0.0298
33 | AGCGGTAT | 0.0378
34 | CGGACCCA | 0.0185
35 | ATTCCTAG | 0.0815
36 | ACGGCTTG | -0.115
37 | CGGTGTGC | -0.103
38 | ACTGTACA | 0.0947
39 | TAAAAAAA | -0.164
40 | GGTTGAGA | 0.0221
41 | TATCTGGA | -0.0728
42 | ACTTCTAC | -0.075
43 | CGCCGACA | 0.0419
44 | CACGCCGC | -0.112
45 | AGCGTGTC | 0.0732
46 | AAAGGCGA | -0.227
47 | GGCGCTAC | -0.192
48 | ACACGGTG | 0.118
49 | CGGATCGA | 0.039
50 | CCAACCCA | 0.0301

Row | Sequence | PBM E-score
51 | ATTCAGGC | 0.0614
52 | CCACGGTC | -0.073
53 | ACGACCAT | -0.0244
54 | AGGTCAAT | -0.027
55 | GTGCATCA | 0.00352
56 | AGAGCGTC | -0.252
57 | GGCAGCTA | 0.109
58 | ATACATTG | 0.0517
59 | ATGTAGGC | -0.0432
60 | AGGCAACA | -0.11
61 | AGGCGGAA | -0.18
62 | GGGCGGTA | -0.0437
63 | TCGCACAA | -0.0435
64 | TCGCTGAA | 0.0432
65 | ATAAGTGG | 0.107
66 | AACGTGCG | -0.145
67 | CTACTTCA | -0.134
68 | CGCACCAC | 0.0664
69 | CGAATTAG | -0.0167
70 | GCGGACTA | 0.0162
71 | CACCTTCG | -0.0644
72 | GGGTATAC | 0.0585
73 | ACCAGGAT | 0.201
74 | CCTCCGGC | -0.0235
75 | CTATATGA | 0.186

Row | Sequence | PBM E-score
76 | TCCTGACA | 0.107
77 | ACACCAAT | 0.218
78 | ATTATAGG | 0.0514
79 | AAACCAAC | -0.16
80 | CAAGTGCA | -0.223
81 | AATTACAC | -0.0469
82 | ATCGTATA | 0.0333
83 | GCAATTAC | -0.0408
84 | TAATCAAA | 0.101
85 | AAACCTAT | -0.214
86 | CAATAAGG | -0.264
87 | ACTGACCA | -0.0638
88 | ATGGCGGC | 0.0438
89 | CCTCTACG | -0.223
90 | GCAGATCA | -0.0544
91 | AACAACAC | 0.164
92 | AAGAGACT | -0.187
93 | CCATTCGG | 0.00792
94 | CTCGGTAA | -0.0875
95 | AGATATCT | 0.103
96 | AGATGGGC | -0.0228
97 | TAGTAATA | 0.191
98 | ACTACCAT | 0.278
99 | ACTAGGGA | -0.15
100 | AAGCTTAT | -0.232

Row | Sequence | PBM E-score
101 | CGAACCCG | 0.025
102 | CAATAGGA | -0.193
103 | ACAAACGC | -0.0485
104 | ACGCCGAA | 0.0473
105 | CGAAACCA | 0.14
106 | ACCGATAT | 0.0122
107 | CATCAATA | 0.0775
108 | AACATTAC | -0.0222
109 | ATACTACG | -0.0642
110 | CAGCCATC | 0.13
111 | AGCGGGCG | -0.133
112 | CAGGTCGG | -0.0228
113 | ACCACTTA | -0.0242
114 | GCAGGAGA | 0.0933
115 | CTATCCGC | 0.0611
116 | GACCCAGC | -0.0225
117 | CTTATTGA | -0.0966
118 | AATTAAAC | 0.0684
119 | CAAAGTAC | 0.0896
120 | CACGAATA | 0.066
121 | AGGCTTAG | -0.163
122 | GCAAGGAA | -0.079
123 | ACCCGTAT | -0.0629
124 | GCGTCTAC | -0.312
125 | AGATTCTA | -0.114

Row | Sequence | PBM E-score
126 | ACCAATTC | 0.116
127 | CGGCTCCA | 0.0244
128 | ATTCCGCC | -0.0421
129 | CAAACAGA | 0.0335
130 | CCAGTGCG | -0.0412
131 | CATGTTGC | 0.0935
132 | ATCTTTAG | 0.112
133 | CCACTCGG | -0.147
134 | TATACGCA | 0.126
135 | AGTCGCGC | 0.374
136 | CCGATGAC | 0.168
137 | CGTCCTGC | 0.0361
138 | CGATGACC | 0.181
139 | ACAGCGAT | -0.04
140 | AATAAGGT | -0.117
141 | ATGATAAG | 0.0266
142 | ACAAGCGT | -0.0347
143 | ATCTAGGA | -0.199
144 | CGCGAAAC | -0.0322
145 | CGTACGTA | -0.217
146 | AGCGCAGA | -0.012
147 | GTTAAGTA | -0.154
148 | CTCATATA | 0.00429
149 | CGCATCCC | -0.154
150 | AATATCGA | 0.0962

Row | Sequence | PBM E-score
151 | CAGCCGAA | -0.104
152 | CACGGGAG | -0.123
153 | ACGGGCCT | -0.224
154 | CGCCGGTA | 0.127
155 | AAACTATT | -0.0444
156 | GATCCGGC | 0.0568
157 | CTGATGCA | 0.0298
158 | ATGAATCC | 0.0842
159 | GCATTCCA | -0.177
160 | ATGGTGAA | 0.0391
161 | AAAACTAA | 0.0441
162 | AATGAACC | 0.0042
163 | ACCACCGT | 0.0748
164 | AATATTCC | 0.0742
165 | ACGGGGGG | -0.136
166 | AGCCTCAC | 0.0442
167 | CCGAATGA | 0.166
168 | CGGCGCAC | 0.111
169 | GCTCTGTA | -0.0493
170 | AGTAAAAA | -0.119
171 | AGTAGGGA | -0.0322
172 | ATCTCCTC | -0.0994
173 | CTACGCTC | -0.129
174 | AAGGGTTA | -0.127
175 | ATTTTGCG | -0.0755

Row | Sequence | PBM E-score
176 | GCGCCCCC | 0.0414
177 | CCGTCGAG | 0.114
178 | AAATAATT | 0.0111
179 | GACGCCGC | 0.0143
180 | ACCCGGCA | 0.121
181 | CCGCAATA | 0.189
182 | CAACAAAG | 0.174
183 | ACAGTACG | 0.148
184 | GATACGAA | -0.0886
185 | ATACGTTC | -0.107
186 | CAAATCGA | -0.0596
187 | GGTGCTTA | -0.189
188 | ACTCTATC | -0.0003
189 | CGTTTGAA | -0.141
190 | CGTACGAG | -0.113
191 | GCGTGAAC | -0.205
192 | AAGGTGGC | -0.0942
193 | CTATGAAG | -0.17
194 | ATGCGCAT | 0.173
195 | CGATGAGC | 0.182
196 | AATAGTAC | 0.0635
197 | ATCGGGCG | -0.179
198 | CGGTTCAA | 0.0706
199 | GGGGTAAC | -0.0637
200 | AGCGTGGA | -0.161

Row | Sequence | PBM E-score
201 | ATTGCTAG | -0.212
202 | ACAGGCTC | 0.0699
203 | GGAGCTCA | -0.197
204 | CACAGCCG | 0.281
205 | AGTCCTTA | -0.0339
206 | CCGTTAAA | -0.141
207 | CTCAGAAC | 0.0205
208 | AACATCGA | 0.114
209 | GCCAGGGA | -0.0435
210 | ATCACAAA | 0.0164
211 | AGAGAACG | -0.138
212 | ATGTTTAA | -0.00863
213 | AGAAGTCA | 0.27
214 | ATACTGTC | 0.137
215 | CTCCTGCA | -0.0766
216 | AGGCGCGC | -0.0286
217 | CATCCGAG | 0.15
218 | CGTGTTAA | -0.0374
219 | GGCACACA | 0.156
